Changes are numbered by the printed parent chain; changes in the protein carry UniProt numbers. Some of the results follow.

B1: AAAUGAG (DNA:RNA)
RNA: GGGAGACCGGAAUUCAGAUUGUCCAAAUGAGUUAAAUCCCGUCGUAGCCACCA
DNA 1: CAATCTGAATTCCGGTCTCCC
DNA 2: TGGTGGCTACGACGGGATT
B2: UAAGUCC (DNA:RNA)
RNA: B1 RNA with A25U, U28G, G29U, A30C, G31C
DNA 1: CAATCTGAATTCCGGTCTCCC
DNA 2: TGGTGGCTACGACGGGATT
B3: UCGCCAA (DNA:RNA)
RNA: B1 RNA with A25U, A26C, A27G, U28C, G29C, G31A
DNA 1: CAATCTGAATTCCGGTCTCCC
DNA 2: TGGTGGCTACGACGGGATT
B4: GGCGGAA (DNA:RNA)
RNA: B1 RNA with A25G, A26G, A27C, U28G, G31A
DNA 1: CAATCTGAATTCCGGTCTCCC
DNA 2: TGGTGGCTACGACGGGATT
B5: GACCACA (DNA:RNA)
RNA: B1 RNA with A25G, A27C, U28C, G29A, A30C, G31A
DNA 1: CAATCTGAATTCCGGTCTCCC
DNA 2: TGGTGGCTACGACGGGATT
B6: UUCACAC (DNA:RNA)
RNA: B1 RNA with A25U, A26U, A27C, U28A, G29C, G31C
DNA 1: CAATCTGAATTCCGGTCTCCC
DNA 2: TGGTGGCTACGACGGGATT
B7: ACGAUUC (DNA:RNA)
RNA: B1 RNA with A26C, A27G, U28A, G29U, A30U, G31C
DNA 1: CAATCTGAATTCCGGTCTCCC
DNA 2: TGGTGGCTACGACGGGATT
B8: UGCUGUA (DNA:RNA)
RNA: B1 RNA with A25U, A26G, A27C, A30U, G31A
DNA 1: CAATCTGAATTCCGGTCTCCC
DNA 2: TGGTGGCTACGACGGGATT
B9: CUAGAGA (DNA:RNA)
RNA: B1 RNA with A25C, A26U, U28G, G29A, A30G, G31A
DNA 1: CAATCTGAATTCCGGTCTCCC
DNA 2: TGGTGGCTACGACGGGATT
B10: GCCAAAU (DNA:RNA)
RNA: B1 RNA with A25G, A26C, A27C, U28A, G29A, G31U
DNA 1: CAATCTGAATTCCGGTCTCCC
DNA 2: TGGTGGCTACGACGGGATT
B11: GCGGUAU (DNA:RNA)
RNA: B1 RNA with A25G, A26C, A27G, U28G, G29U, G31U
DNA 1: CAATCTGAATTCCGGTCTCCC
DNA 2: TGGTGGCTACGACGGGATT
B12: AUGAGCA (DNA:RNA)
RNA: B1 RNA with A26U, A27G, U28A, A30C, G31A
DNA 1: CAATCTGAATTCCGGTCTCCC
DNA 2: TGGTGGCTACGACGGGATT
B13: UGCCGGG (DNA:RNA)
RNA: B1 RNA with A25U, A26G, A27C, U28C, A30G
DNA 1: CAATCTGAATTCCGGTCTCCC
DNA 2: TGGTGGCTACGACGGGATT
B14: GUAAAAU (DNA:RNA)
RNA: B1 RNA with A25G, A26U, U28A, G29A, G31U
DNA 1: CAATCTGAATTCCGGTCTCCC
DNA 2: TGGTGGCTACGACGGGATT
B15: CUCUUCA (DNA:RNA)
RNA: B1 RNA with A25C, A26U, A27C, G29U, A30C, G31A
DNA 1: CAATCTGAATTCCGGTCTCCC
DNA 2: TGGTGGCTACGACGGGATT
B16: GAGGUGU (DNA:RNA)
RNA: B1 RNA with A25G, A27G, U28G, G29U, A30G, G31U
DNA 1: CAATCTGAATTCCGGTCTCCC
DNA 2: TGGTGGCTACGACGGGATT
B17: GGAAGGG (DNA:RNA)
RNA: B1 RNA with A25G, A26G, U28A, A30G
DNA 1: CAATCTGAATTCCGGTCTCCC
DNA 2: TGGTGGCTACGACGGGATT
B18: GCGUUUU (DNA:RNA)
RNA: B1 RNA with A25G, A26C, A27G, G29U, A30U, G31U
DNA 1: CAATCTGAATTCCGGTCTCCC
DNA 2: TGGTGGCTACGACGGGATT
B19: CCCACUU (DNA:RNA)
RNA: GGGAGACCGGAAUUCAGAUUGUCCCCCACUUUUAAAUCCCGUCGUAGCCACCA
DNA 1: CAATCTGAATTCCGGTCTCCC
DNA 2: TGGTGGCTACGACGGGATT
B20: AUGAGCC (DNA:RNA)
RNA: B1 RNA with A26U, A27G, U28A, A30C, G31C
DNA 1: CAATCTGAATTCCGGTCTCCC
DNA 2: TGGTGGCTACGACGGGATT

The target of this experiment is T1, RBFOX1 RRM RbFoxmut (Fox-RRM*) (Homo sapiens, UniProt Q9NWB1 109-208, R118D;E147R;N151S;E152T).
T1 sequence: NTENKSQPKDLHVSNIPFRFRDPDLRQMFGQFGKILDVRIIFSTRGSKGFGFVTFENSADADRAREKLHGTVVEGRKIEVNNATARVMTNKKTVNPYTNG
In words: EMSA; HiTS-Eq, 1 nM pool, 10 min; buffer printed only for the single-RNA assays: 10 mM Tris pH 7.5, 150 mM NaCl, 3.4 mM EDTA, 0.001% NP-40, 30 C. Particulars: tags: His6 N-terminal (pET28a); label: 5' 32P. Put shortly: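 Purified wild-type or mutant RbFox RRM at increasing concentrations was equilibrated with 1 nM of 5′-radiolabelled RNA carrying 7 randomized nucleotides for 10 min in 50 µL. Unbound RNA was separated by 8% native PAGE and sequenced. Relative association constants came from read-count changes of each RNA species compared with the control reaction, normalised to the cognate motif.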
Turning to B1, the binding signal was 0.108 KA relative to UGCAUGU. Consider B2, for which the binding signal is 0.0771 KA relative to UGCAUGU. With B3, the binding signal was 0.0572 KA relative to UGCAUGU. With B4, the binding signal was 0.103 KA relative to UGCAUGU. In the case of B5 it was 0.0871 KA relative to UGCAUGU. For the molecule B6, the binding signal was 0.0833 KA relative to UGCAUGU. As for B7, the binding signal is 0.119 KA relative to UGCAUGU. In the case of B8, the binding signal is 0.211 KA relative to UGCAUGU. Take B9: the binding signal was 0.064 KA relative to UGCAUGU. Take B10: the binding signal is 0.0858 KA relative to UGCAUGU. Consider B11, for which the binding signal was 0.136 KA relative to UGCAUGU. In the case of B12, the binding signal was 0.141 KA relative to UGCAUGU. For the molecule B13, the binding signal is 0.0889 KA relative to UGCAUGU. Regarding B14, the binding signal is 0.0936 KA relative to UGCAUGU. In the case of B15, the binding signal is 0.097 KA relative to UGCAUGU. Turning to B16, the binding signal was 0.138 KA relative to UGCAUGU. In the case of B17 it was 0.0512 KA relative to UGCAUGU; in that of B18, 0.0773 KA relative to UGCAUGU; in that of B19, 0.0801 KA relative to UGCAUGU. Take B20: the binding signal is 0.186 KA relative to UGCAUGU.
